Legend:
Assay in all cases: microbe, parasite or virus in culture
Assay type in all cases: cell-based
[1] = system: influenza A/Puerto Rico/8/1934 (PR/8, H1N1) virus; details: MDCK, 72 h, read-out: Anti-PR/8 (H1N1), Activities (EC50)
[2] = system: A/Hong Kong/8/68 (HK/68, H3N2); details: Influenza A virus, MDCK cells, MOI 0.005, 72 h, CPE inhibition
A/WSN/33 (H1N1) = details: Influenza A virus, MDCK, 72 h, read-out: A/WSN/33 EC50
influenza B/Lee/40 virus = details: MDCK, 72 h, read-out: B/Lee/40 EC50

| SMILES | EC50 [1] [µM] | EC50 [2] [µM] | EC50 (A/WSN/33 (H1N1)) [µM] | EC50 (influenza B/Lee/40 virus) [µM] |
| --- | --- | --- | --- | --- |
| Cc1c(-c2ccccc2F)[nH]c2ccc(CNC(=O)CCc3cc(O)no3)cc12 [11C5] | 55.5 ± 27.7 | – | – | – |
| Cc1cc(CN2CCOc3c(O)cc(-c4ccccc4Cl)cc3C2)on1 [11C6] | 35.6 ± 1.74 | – | – | – |
| O=C(NCc1nc(C2CCCCC2)no1)c1cc(-c2ccccc2F)n[nH]1 [11C8] | 26.4 ± 12 | – | – | – |
| c1csc(CNc2nc3nonc3nc2NCCCN2CCOCC2)c1 [11D2] | 0.3 ± 0.02 | – | – | – |
| C=CCn1cc(CNCc2noc(-c3ccc4c(c3)OCO4)n2)c(C)n1 [11D4] | 6.2 ± 2.85 | 25.8 ± 1.89 | 19.2 ± 6.28 | 11.3 ± 0.15 |
| c1cc(Cn2ccnc2-c2nc3c(s2)CCCC3)cc(-c2nnn[nH]2)c1 [12B1] | 53.9 ± 10.4 | – | – | – |
| C=CCn1cc(-c2cc(-c3ccc(C(=O)O)cc3)[nH]c(=N)c2C#N)cn1 [12C5] | 30.9 ± 2.58 | 30.1 ± 12.8 | 24.1 ± 6.14 | 25.1 ± 2.57 |
| NS(=O)(=O)CCCC(=O)NCc1ccc2[nH]c3c(c2c1)CCCCCC3 [13D7] | 26.3 ± 13.8 | – | – | – |
| CCSc1ncc(-c2cc(-c3c(C)nn(C)c3C)nc(N)c2C#N)cn1 [21A5] | 22.1 ± 11 | 25.6 ± 18.8 | 14.8 ± 6.31 | 33.8 ± 0.68 |
| Cc1cccnc1CCNc1nc2nonc2nc1NCc1cccs1 [21B1] | 67.7 ± 43.3 | > 100 | 57.4 ± 15.5 | 60.4 ± 1.41 |
| CCC(CC)O[C@@H]1C=C(C(=O)O)C[C@H](N)[C@H]1NC(C)=O [OC, Oseltamivir carboxylate, reference compound] | 1.78 ± 0.72 | 0.004 ± 0.001 | – | 4.04 ± 0.58 |
| O=C(O)[C@H]1C2CCC(CC2)[C@@H]1Nc1nc(-c2c[nH]c3ncc(F)cc23)ncc1F [VX-787, reference compound] | < 0.005 | – | – | > 10 |
